{
  "source": "PubChem BioAssay AID624173",
  "about": "(National Center for Advancing Translational Sciences (NCATS), 2012)",
  "note": "Screen size: about 410,000 compounds; about 490 (0.12%) were called active. This list was built around the results that the source calls inconclusive (neither active nor inactive); the mix of calls is not that of the screen. Calls follow the shape of the dose curve; as a rule, active = well fitted inhibition curve with a large enough effect; inconclusive = small, poorly fitted or top-dose-only effect; inactive = flat fitted curve, though single readings scatter. Potencies of inconclusive entries are doubtful fits and often do not repeat. % is scaled to controls: 0 for no effect and ±100 for the full control effect; potency is read from the fitted curve at half-maximal effect; tags tell the direction and shape of the fitted curve.",
  "data": [
    {"target": "pyruvate kinase (Trypanosoma brucei) (UniProt Q57TT1)", "assay": "qHTS of Trypanosoma Brucei Inhibitors; also: nearly all actives have a fitted effect of over 50% in size", "conditions": "TbPYK enzyme, Kinase-Glo Plus ATP luminescence, 45 min; series mostly up to 76.8 µM; activity, negative = inhibition: at the top concentration", "in_short": "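In this concentration-response screen, enzyme-free wells defined baseline while DMSO plates tracked drift. Each reaction combined TbPYK, substrate, compound and 130 uM ADP for 45 min at room temperature. Kinase-Glo Plus luminescence gave the signal.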", "values": [
      {"compound": "Cc1cc(C(F)F)n2ncc(C(=O)NCCc3ccccc3Cl)c2n1", "Potency": "inconclusive: 50.1 µM [inhibitor, single point]"},
      {"compound": "CSc1cccc(NC(C)=O)c1", "activity, negative = inhibition": "inactive: 3.4%"},
      {"compound": "CCOC(=O)c1ccc(NC(=O)CN2C(=O)CSC2=O)cc1", "Potency": "inconclusive: 22.4 µM [inhibitor, partial curve]"},
      {"compound": "COC(=O)c1ccc2nc(-c3ccco3)c(Cc3ccccc3C(F)(F)F)n2c1", "Potency": "inconclusive: 39.8 µM [inhibitor, partial curve, poor fit]"},
      {"compound": "O=C(Nc1cccc([N+](=O)[O-])c1)c1ccc2c(c1)OCCO2", "activity, negative = inhibition": "inactive: 0.407%"},
      {"compound": "CN1CCN(C(=S)c2ccc(Br)cc2)CC1", "Potency": "inconclusive: 15.8 µM [inhibitor, partial curve]"},
      {"compound": "O=C(NC(=S)NCC1CCCO1)c1ccco1", "note": "(stereo not drawn)", "activity, negative = inhibition": "inactive: -3.59%"},
      {"compound": "O=C(c1ccco1)N1N=C(c2ccccc2)CC1c1ccc2nccnc2c1", "note": "(stereo not drawn)", "activity, negative = inhibition": "inactive: -17%"},
      {"compound": "COc1cc(C(=O)NC2(C(F)(F)F)C(=O)NC(C)=C2C#N)cc(OC)c1OC", "note": "(stereo not drawn)", "activity, negative = inhibition": "inactive: -8.79%"},
      {"compound": "CCN(CC)C1CCN(C(=O)c2cc(COc3ccccc3SC)on2)C1", "note": "(stereo not drawn)", "activity, negative = inhibition": "inactive: -11.5%"},
      {"compound": "O=C(COC(=O)c1ccc2ncsc2c1)Nc1ccccc1Cl", "activity, negative = inhibition": "inactive: 2.69%"},
      {"compound": "O=C(CC1CCCCC1)Nc1ccc(-c2ccc3nncn3n2)cc1", "activity, negative = inhibition": "inactive: -7.82%"},
      {"compound": "Cc1cc(C)c(NC(=O)c2cc(C)nc3c2c(C)nn3-c2cccc(F)c2)c(C)c1", "activity, negative = inhibition": "inactive: 2.67%"},
      {"compound": "COC(=O)c1sc(N)c(C(=O)OC)c1COC(=O)c1c(C)noc1C", "activity, negative = inhibition": "inactive: 0.114%"},
      {"compound": "CCOCCCNC(=O)c1ccc(Cn2c(=S)[nH]c3c([nH]c4ccc(OC)cc43)c2=O)cc1", "Potency": "inconclusive: 1 µM [inhibitor, full curve]"},
      {"compound": "FC(F)(F)Oc1ccc(NC(=S)NCCCN2CCOCC2)cc1", "Potency": "inconclusive: 31.6 µM [inhibitor, partial curve, poor fit]"},
      {"compound": "CCOC(=O)C(C)N1C(=O)S/C(=C\\c2ccc(-c3ccccc3C(=O)O)o2)C1=O", "note": "(stereo not drawn)", "Potency": "inconclusive: 31.6 µM [inhibitor, partial curve, poor fit]"},
      {"compound": "O=C(Cn1c(=O)oc2ccccc21)Nc1n[nH]c(=S)s1", "Potency": "inconclusive: 12.6 µM [inhibitor, partial curve, poor fit]"},
      {"compound": "COc1ccc(N2CSC3=C(C#N)C(c4cccc(OC)c4OC)CC(=O)N3C2)cc1", "note": "(stereo not drawn)", "Potency": "active: 12.6 µM"},
      {"compound": "COc1ccc(-c2nc(=S)[nH][nH]2)cc1OC", "Potency": "inconclusive: 22.4 µM [inhibitor, partial curve, poor fit]"},
      {"compound": "Cc1c(Br)c([N+](=O)[O-])nn1CCCC(=O)Nc1sc2c(c1C#N)CCC2", "Potency": "inconclusive: 35.5 µM [inhibitor, single point]"},
      {"compound": "Fc1ccc(-c2c[nH]c(=S)n2Cc2ccccc2)cc1", "Potency": "inconclusive: 2.51 µM [inhibitor, full curve]"},
      {"compound": "C=CCN1C(=O)NC(=O)/C(=C/c2cnc(SC)nc2)C1=O", "Potency": "inconclusive: 8.91 µM [inhibitor, partial curve, poor fit]"},
      {"compound": "COCC(C)n1c(COc2ccccc2F)nnc1SCC(=O)Nc1oc(C)c2c(C)n[nH]c(=O)c12", "note": "(stereo not drawn)", "Potency": "inconclusive: 35.5 µM [inhibitor, partial curve]"},
      {"compound": "COc1ccc(Cn2c(C(=O)O)c(CNCc3ccco3)c3ccc(C)cc32)cc1", "activity, negative = inhibition": "inactive: 4.14%"},
      {"compound": "CCN(CC)c1ccc(NC(=O)c2cnn(-c3ccccc3)c2-n2cccc2)c(C)c1", "activity, negative = inhibition": "inactive: -8.53%"},
      {"compound": "COc1ccc(/C=N/N2CCN(c3ccc(Cl)cc3)CC2)cc1", "Potency": "inconclusive: 50.1 µM [inhibitor, single point]"},
      {"compound": "O=C1NC(=O)N(c2ccccc2)C(=O)/C1=C\\c1ccccc1[N+](=O)[O-]", "Potency": "inconclusive: 25.1 µM [inhibitor, partial curve, poor fit]"},
      {"compound": "Cc1ccc(NCc2n[nH]c(=S)n2Cc2ccccc2)cc1Cl", "Potency": "inconclusive: 28.2 µM [inhibitor, partial curve, poor fit]"},
      {"compound": "COc1ccc(CC(=O)NCc2nnc(SCC(=O)Nc3ncc(C)s3)n2C)cc1", "Potency": "inconclusive: 28.2 µM [inhibitor, single point]"},
      {"compound": "CC(C)(C)N1NC2(CCCCC2)NC1=S", "Potency": "inconclusive: 3.55 µM [inhibitor, full curve, poor fit]"},
      {"compound": "Cc1ccc(CN(C)C(=O)c2cccc(S(=O)(=O)N3CCCC3)c2)o1", "Potency": "inconclusive: 35.5 µM [inhibitor, single point]"},
      {"compound": "C=CCn1c(C2CCCCC2)n[nH]c1=S", "Potency": "inconclusive: 15.8 µM [inhibitor, partial curve]"},
      {"compound": "Cc1cc(C)c2c(c1)NC(C(=O)O)C1CC=CC21", "note": "(stereo not drawn)", "Potency": "inconclusive: 17.8 µM [inhibitor, partial curve, poor fit]"},
      {"compound": "COc1ccc(N2C(=O)/C(=C/c3cccs3)C(=O)NC2=S)cc1", "Potency": "inconclusive: 25.1 µM [inhibitor, partial curve, poor fit]"},
      {"compound": "COc1cccc(C(=O)NCc2n[nH]c(=S)n2-c2cccc(C)c2)c1", "Potency": "inconclusive: 8.91 µM [inhibitor, partial curve]"},
      {"compound": "Nc1nc(=S)c2ncn(C3CCCCC3)c2[nH]1", "Potency": "inconclusive: 15.8 µM [inhibitor, partial curve, poor fit]"},
      {"compound": "Cc1nc(Cc2nnc(SCC(=O)N3CCN(c4ccc(O)cc4)CC3)o2)cs1", "Potency": "inconclusive: 50.1 µM [inhibitor, single point]"},
      {"compound": "Cc1ccc(C(=O)CSc2nnc3c4ccccc4nc(C(C)(C)C)n23)cc1", "Potency": "inconclusive: 20 µM [inhibitor, partial curve]"},
      {"compound": "COc1ccc(-n2c(CNC(=O)c3cc(OC)c(OC)c(OC)c3)n[nH]c2=S)cc1", "Potency": "inconclusive: 35.5 µM [inhibitor, partial curve, poor fit]"},
      {"compound": "Cc1nc2ccc(N=NN(C)C)cc2[nH]1", "Potency": "inconclusive: 28.2 µM [inhibitor, partial curve, poor fit]"},
      {"compound": "COc1ccc(N2C(=O)/C(=C/c3ccc(C)o3)C(=O)NC2=S)c(OC)c1", "Potency": "inconclusive: 15.8 µM [inhibitor, partial curve, poor fit]"},
      {"compound": "COc1cccc(-n2cn[nH]c2=S)c1", "Potency": "inconclusive: 20 µM [inhibitor, partial curve, poor fit]"}
    ]}
  ]
}
